Results from PubChem BioAssay AID1346378 (National Center for Advancing Translational Sciences (NCATS), 2018).
The whole screen tested about 420,000 compounds, of which about 540 (0.13%) were called active. This list was built around the results that the source calls inconclusive (neither active nor inactive); the mix of calls is not that of the screen. No stated cut-off is given here; in the data, active means activity change below about -50%; inconclusive means mostly about -30% to -49%; inactive means weaker than that.
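Further: -100% = wells without enzyme as full effect.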

The compounds below were run against Phosphatidylinositol 4-kinase type 2-alpha (Homo sapiens) (UniProt Q9BTU6) (assay: qHTS for small molecular inhibitors of PI4K2A). Conditions: purified PI4K2A, ADP-Glo luminescence, 1 h; at 76.9 µM, hits give low values.
Chain of UniProt Q9BTU6 (Q9BTU6 whole entry, looked up): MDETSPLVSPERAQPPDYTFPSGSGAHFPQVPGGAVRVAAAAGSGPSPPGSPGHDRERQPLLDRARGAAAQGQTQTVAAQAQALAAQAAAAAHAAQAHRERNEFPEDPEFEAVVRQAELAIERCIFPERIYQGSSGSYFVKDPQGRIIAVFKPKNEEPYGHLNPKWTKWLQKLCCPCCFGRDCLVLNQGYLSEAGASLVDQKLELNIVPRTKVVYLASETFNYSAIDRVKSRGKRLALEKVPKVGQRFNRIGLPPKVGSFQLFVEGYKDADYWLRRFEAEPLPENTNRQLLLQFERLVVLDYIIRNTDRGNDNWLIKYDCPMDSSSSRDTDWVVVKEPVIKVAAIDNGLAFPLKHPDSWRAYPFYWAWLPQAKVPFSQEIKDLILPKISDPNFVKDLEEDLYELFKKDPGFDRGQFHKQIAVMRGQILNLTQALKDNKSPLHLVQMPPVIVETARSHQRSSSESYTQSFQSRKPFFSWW
Method in brief: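 PI4K2A activity was measured by ADP-Glo luminescence: enzyme (4 ug/mL stock) and phosphatidylinositol (1.2 mM stock) in Tris pH 7.5/MgCl2/EGTA/Triton X-100 buffer were reacted with ATP (300 microM stock) for one hour at ambient temperature.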
For O=S(=O)(c1ccc2oc(=S)[nH]c2c1)N1CCOCC1, the activity change, negative = inhibition was inactive: -3.09%.
In the case of COc1cc(/C=C2/C(=O)N(c3ccc(C(=O)O)cc3)N=C2C)cc(OC)c1O, the activity change, negative = inhibition is reported as inconclusive: -48.3%.
With C=CCN1[C@H](CO)[C@H](c2ccc(C#CC3(O)CCCC3)cc2)[C@@H]1C#N the activity change, negative = inhibition was inconclusive: -30.8%.
With c1ccc2c(c1)Cn1c-2nc2ccccc21 the activity change, negative = inhibition was active: -52.6%.
Cc1nonc1C(=O)N/N=C/c1ccc(O)cc1O was tested, and the activity change, negative = inhibition was active: -79.4%.
In the case of O=C1c2ccccc2C(=O)c2cc(N3CCCCC3)ccc21, the activity change, negative = inhibition is reported as inconclusive: -31.7%.
With COc1ccc(CCNC(=O)c2ccc(COc3ccccc3OC)o2)cc1 the activity change, negative = inhibition was inactive: -1.05%.
In the case of O=S(=O)(Nc1nc2ccccc2nc1Nc1ccc2c(c1)OCO2)c1ccc(F)cc1, the activity change, negative = inhibition is reported as inactive: 1.63%.
c1c2c(cc3sc(N4CCCCC4)nc13)OCCO2 was tested, and the activity change, negative = inhibition was inconclusive: -43.9%.
For COc1ccc(NC2=C(NCCO)C(=O)c3ccccc3C2=O)cc1, the activity change, negative = inhibition was inconclusive: -33.8%.
With O=S(=O)(O)c1cc(O)c2c(O)c(N=Nc3cc(Cl)ccc3O)c(S(=O)(=O)O)cc2c1 the activity change, negative = inhibition was active: -52.6%.
In the case of C=CCn1c(NC(=O)c2ccccc2Cl)c(C#N)c2nc3ccccc3nc21, the activity change, negative = inhibition is reported as inconclusive: -37.1%.
In the case of COc1ccc(C(=O)Oc2ccc[nH]c2=O)cc1, the activity change, negative = inhibition is reported as inconclusive: -34.9%.
With NC1=NC(=O)CC(C(=O)NCc2ccccc2)S1 (stereo unspecified) the activity change, negative = inhibition was inactive: 2.73%.
In the case of Cc1ccc(C)n1Cc1ccc(C(=O)O)cc1, the activity change, negative = inhibition is reported as inconclusive: -46.2%.
In the case of CCOC(=O)C1CCN(c2ccc(-c3cccs3)nn2)CC1, the activity change, negative = inhibition is reported as active: -68.9%.
With CC1=NN(c2ccc(Cl)c(C(=O)O)c2)C(=O)/C1=C/c1ccc(-c2ccccc2[N+](=O)[O-])o1 the activity change, negative = inhibition was active: -58.6%.
With Cc1noc(/C=C/c2ccco2)c1S(=O)(=O)N1CCC(C(=O)N2CCc3ccccc32)CC1 the activity change, negative = inhibition was inconclusive: -35.6%.
In the case of CCOc1ccc(Nc2nc(N)c3ccccc3n2)cc1, the activity change, negative = inhibition is reported as active: -79.8%.
For O=C(Nc1c(-c2ccc(Cl)cc2)[nH][nH]c1=O)c1ccccn1, the activity change, negative = inhibition was inconclusive: -50%.
With CN(C)/C=C1\C(=O)N(c2ccc([N+](=O)[O-])cc2)N=C1c1ccccc1 the activity change, negative = inhibition was active: -50.7%.
With O=C(Cc1ccccc1)NC1(O)C(=O)c2ccccc2C1=O the activity change, negative = inhibition was inconclusive: -44.3%.
For Cc1nc2sc3c(NCc4ccco4)ncnc3c2c2c1COC(C)(C)C2, the activity change, negative = inhibition was inactive: -14.6%.
CCOc1cccc(CNc2ccc(O)cc2)c1OCc1ccc(Cl)cc1Cl was tested, and the activity change, negative = inhibition was active: -57.7%.
For O=C(/C=C/c1ccco1)NCC(=O)N/N=C/c1ccc([N+](=O)[O-])cc1, the activity change, negative = inhibition was inconclusive: -31.2%.
For CCC(C)NC(=O)c1c(F)c(F)c(F)c(F)c1F (stereo unspecified), the activity change, negative = inhibition was active: -63%.
With Cc1[nH][nH]c(=O)c1C(c1ccc(-c2cccc(C(=O)O)c2)o1)c1c(C)[nH][nH]c1=O the activity change, negative = inhibition was inconclusive: -43.1%.
For Cc1ccc(/C=C/c2nc3ccccc3[nH]2)cc1, the activity change, negative = inhibition was active: -66.5%.
With Cc1cccc(NC(=O)CCC(=O)OCC(=O)c2ccc(Oc3ccc([N+](=O)[O-])cc3)cc2)c1 the activity change, negative = inhibition was inactive: -0.23%.
c1ccc(-c2csc3ncnc(N4CCc5ccccc5C4)c23)cc1 was tested, and the activity change, negative = inhibition was inactive: -1.24%.
In the case of CC1(C)Cc2c(C#N)c(N3CCN(C(=O)c4ccccc4Cl)CC3)nc(-c3ccco3)c2CS1, the activity change, negative = inhibition is reported as active: -52.6%.
With CCCCNC(=O)c1ccc2nc(-c3ccco3)c(-c3ccco3)nc2c1 the activity change, negative = inhibition was inconclusive: -41.6%.
For Cc1cccc(C(=O)O/N=C(\N)c2ccccn2)c1, the activity change, negative = inhibition was inconclusive: -46.7%.
CCc1cc(C(=O)NC2CCCc3c2cnn3-c2cccc(C)c2C)n(C)n1 (stereo unspecified) was tested, and the activity change, negative = inhibition was inactive: -4.29%.
With O=S(=O)(Nc1cccc2c1ccc1cccn12)c1cccs1 the activity change, negative = inhibition was inconclusive: -32.4%.
In the case of COc1cc2c(C#N)c(N3CCN(c4ccccc4OC)CC3)nc(N)c2c(N)n1, the activity change, negative = inhibition is reported as active: -54.7%.
With CN(C)C=Nc1ncc2c([nH]c3ccccc32)c1C#N the activity change, negative = inhibition was inactive: 5.58%.
For CC(=O)Nc1n[nH]c(=S)s1, the activity change, negative = inhibition was inactive: -12.6%.
With CCOC(=O)CC[C@@]1(C(=O)OCC)C[C@@H](CC(=O)NCc2ccc(C)o2)C(=O)N2CCCC=C21 the activity change, negative = inhibition was inactive: -0.22%.
In the case of COC(=O)c1c(-c2ccc(Cl)cc2)noc1N1CCN(c2cccc(OC)c2)CC1, the activity change, negative = inhibition is reported as inactive: -1.47%.
With Cc1cc(Br)ccc1-n1[nH]c(C)c(C=Nc2cccc3nsnc23)c1=O the activity change, negative = inhibition was active: -54.3%.
In the case of COc1ccc(C(=O)O/N=C(\N)c2ccccc2)c(OC)c1, the activity change, negative = inhibition is reported as inconclusive: -33.6%.
For Cc1sc(NC(=O)C2CCCC2)c(C#N)c1C, the activity change, negative = inhibition was inactive: 0.0698%.
NC1=NC(=O)C(=Cc2ccccc2)S1 was tested, and the activity change, negative = inhibition was inactive: -8.99%.
For COc1c(O)ccc2c1CN1CCc3cc4c(cc3C1C2)OCO4 (stereo unspecified), the activity change, negative = inhibition was inconclusive: -34.9%.
In the case of COc1cccc(/C=N/NC(=O)c2cc(-c3cccn3C)n[nH]2)c1, the activity change, negative = inhibition is reported as inactive: -4.22%.
With CCCC(=O)N(CCN1CCOCC1)c1nc2ccc(OCC)cc2s1 the activity change, negative = inhibition was inconclusive: -30.6%.
For CN(C)c1ccc(NC2=C([N+](=O)[O-])CS(=O)(=O)C2)cc1, the activity change, negative = inhibition was active: -63.1%.
In the case of O=C1Nc2ccccc2/C1=N\N=C\c1ccc(O)c(O)c1, the activity change, negative = inhibition is reported as inactive: -5.12%.
In the case of N#C/C(=C\c1ccco1)C(=O)Nc1ccc(S(N)(=O)=O)cc1, the activity change, negative = inhibition is reported as inconclusive: -31.9%.
COc1ccc(NC(=O)COc2ccccc2Cc2ccccc2)cc1S(N)(=O)=O was tested, and the activity change, negative = inhibition was inactive: -0.192%.
For NC1=CC(=O)C(=O)c2cccnc21, the activity change, negative = inhibition was inconclusive: -49%.
O=C(CN1CCN(Cc2ccccc2)CC1)N1CCCc2c1c(=O)oc1ccc(O)cc21 was tested, and the activity change, negative = inhibition was inactive: 5.17%.
N#CC1=C(N)N2C(=C(C#N)C1c1ccc(Br)cc1)Nc1ccccc12 (stereo unspecified) was tested, and the activity change, negative = inhibition was inactive: -3.32%.
With O=c1nccc(N/N=C/c2cccc(O)c2)[nH]1 the activity change, negative = inhibition was inconclusive: -39.1%.
For Cc1nc(-c2ccc(C(=O)Nc3ccc(F)cc3)cc2)cs1, the activity change, negative = inhibition was inconclusive: -35.8%.
In the case of CN(CCCC(=O)O)c1ccc(N=Nc2ccc([N+](=O)[O-])cc2)cc1, the activity change, negative = inhibition is reported as inconclusive: -35.8%.
With CN(C)c1ncc(C2=C(Cl)C(=O)C(N3CCCC3)=C(Cl)C2=O)s1 the activity change, negative = inhibition was inconclusive: -36.9%.
With O=C(O)Cc1ccc(NC(=O)Nc2ccc(Br)cc2)cc1 the activity change, negative = inhibition was inactive: -2.24%.
With O=C(O)c1ccccc1-c1c2cc(I)c(=O)c(I)c-2oc2c(I)c(O)c(I)cc12 the activity change, negative = inhibition was inconclusive: -49%.
With CC[n+]1c(/C=C/C=C2/N(C)c3ccccc3C2(C)C)sc2ccccc21 the activity change, negative = inhibition was inconclusive: -36.3%.
COCc1cc(=O)n2[nH]c(-c3ccsc3-n3c(C)ccc3C)cc2n1 was tested, and the activity change, negative = inhibition was inconclusive: -45.6%.
With CC1=NN(c2ccc(Br)cc2)C(=O)/C1=C/c1ccc(-c2ccccc2C(=O)O)o1 the activity change, negative = inhibition was active: -50.2%.
In the case of c1ccc(-c2cn3c(n2)-c2ccccc2C3)cc1, the activity change, negative = inhibition is reported as active: -51.4%.
COc1ccc(/C=C/C(=O)NCc2ccccn2)cc1 was tested, and the activity change, negative = inhibition was inactive: -4.67%.
CN(C)c1ccc(O)c2c1CC1CC3[C@@H](N(C)C)C(=O)C(C(N)=O)=C(O)[C@]3(O)C(=O)C1=C2O (stereo partly specified) was tested, and the activity change, negative = inhibition was inconclusive: -30.6%.
With NS(=O)(=O)c1ccc(NC(=O)c2ccc(-c3ccccc3)cc2)cc1 the activity change, negative = inhibition was inconclusive: -48.4%.
In the case of COc1ccc(C(=O)O/N=C(\C)c2ccccc2)cc1, the activity change, negative = inhibition is reported as active: -95.1%.
In the case of O=C(/C=C\c1ccc(-c2ccccc2)o1)c1ccccc1, the activity change, negative = inhibition is reported as inactive: -0.23%.
For COc1cccc(/C=C2\CCc3ccccc3C2=O)c1, the activity change, negative = inhibition was active: -69.5%.
In the case of C=CCNc1ncnc2c1cnn2-c1cccc(C)c1, the activity change, negative = inhibition is reported as inconclusive: -39.4%.
In the case of O=C(N/N=C/c1ccc([N+](=O)[O-])o1)c1cn(-c2ccccc2)nc1-c1ccc(Cl)cc1, the activity change, negative = inhibition is reported as inactive: -4.49%.
For Nc1ccccc1N1CCN(C(=O)c2ccccc2)CC1, the activity change, negative = inhibition was inactive: 5.07%.
In the case of COc1cc(CN2CCCN(C)CC2)c([N+](=O)[O-])cc1OC, the activity change, negative = inhibition is reported as inconclusive: -47.1%.
For COc1cc(N)c2ncccc2c1Br, the activity change, negative = inhibition was active: -52.4%.
In the case of CCc1ccccc1N(CC(=O)OC)S(C)(=O)=O, the activity change, negative = inhibition is reported as inactive: 6.3%.
In the case of C=C(C)C(=O)Nc1cccc(C2=NOC3(C2)C[C@@H](C(N)=O)N(C(=O)CC(c2ccccc2)c2ccccc2)C3)c1 (stereo partly specified), the activity change, negative = inhibition is reported as inactive: -5.45%.
For CC[C@H](CO)Oc1cc(NCc2cccc(N)c2)c2ncn(C(C)C)c2c1, the activity change, negative = inhibition was inconclusive: -33.5%.
With Cc1ccc(CNc2nc3ccccc3n2C)cc1 the activity change, negative = inhibition was inconclusive: -31.4%.
In the case of CCOc1ccc2nc(NC(=O)c3ccccc3)sc2c1, the activity change, negative = inhibition is reported as active: -57.9%.
With CC(C)(C)n1nnnc1C(c1cccs1)N(Cc1ccccc1)Cc1ccco1 (stereo unspecified) the activity change, negative = inhibition was inactive: 14%.
For Cc1csc(NC(=O)c2ccoc2C)n1, the activity change, negative = inhibition was inconclusive: -37.4%.
In the case of Cc1ccc(S(=O)(=O)/N=C2\C=C(NS(=O)(=O)c3ccc(C)cc3)C(=O)c3ccccc32)cc1, the activity change, negative = inhibition is reported as inconclusive: -30.9%.
For S=C(NCCCN1CCOCC1)N1CCN(c2cccc(Cl)c2)CC1, the activity change, negative = inhibition was inconclusive: -33.9%.
For FC(F)(F)c1ccc(Cn2ccc3ccc(-c4ccc5ccn(Cc6ccccc6)c5c4)cc32)cc1, the activity change, negative = inhibition was inconclusive: -31.2%.
Cc1c(C(=O)N2CCOCC2)c(S(=O)(=O)Nc2ccc(C(C)C)cc2)c(C)n1C was tested, and the activity change, negative = inhibition was inactive: 4.1%.
In the case of Cc1ccnc2nc(C(=O)OCC(=O)NC3CCCC(C)C3C)nn12 (stereo unspecified), the activity change, negative = inhibition is reported as inactive: -14.3%.
For Cc1cc(C)c([N+](=O)[O-])cc1-c1ccc(/C=N/c2c(-c3ccco3)nc3ccccn23)o1, the activity change, negative = inhibition was inconclusive: -31.5%.
O=C(N/N=C/c1cccc(Oc2ccccc2)c1)c1ccccc1Br was tested, and the activity change, negative = inhibition was inactive: 1.1%.
With COc1ccc(/C=N/Nc2snc(SC)c2C#N)cc1OC the activity change, negative = inhibition was active: -53.6%.
For CCOc1ccc(C(c2c(C)[nH]n(-c3ccccc3)c2=O)c2c(C)[nH]n(-c3ccccc3)c2=O)cc1OC, the activity change, negative = inhibition was active: -57.6%.
